A lower IC50 marks a more sensitive line; a limit (>, <) means that the fit lies beyond the doses tested. For AUC the same curve is integrated over the 256-fold range of doses and scaled to a fraction: 1 means no effect, lower means more sensitive.
Compound: NC1(c2ccc(-c3nc4ccn5c(=O)[nH]nc5c4cc3-c3ccccc3)cc2)CCC1 [MK-2206]
Test: Viability of human cancer cell lines after 72 h of drug (GDSC screen)
Method: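 Human cancer cell lines in 384-well plates, medium with 10% serum, drug for 72 h over a 256-fold dose range (nine 2-fold or five 4-fold steps up to the top dose). Adherent lines were fixed and stained with the nucleic acid dye Syto60, suspension lines read with resazurin; signal relative to control wells, capped at 0 and 100%. One two-parameter sigmoid per drug and line, fitted in a mixed model over all curves with the slope shared within a line.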

Row | Cell Line | AUC | IC50
1 | TGW (neuroblastoma, adherent, top dose 4 µM) | 0.894 | 3.61 µM
2 | NCI-H510A (small cell lung carcinoma, semi-adherent, top dose 4 µM) | 0.988 | > 4 µM
3 | NCI-H1568 (lung adenocarcinoma, adherent, top dose 4 µM) | 0.941 | > 4 µM
4 | H3255 (lung adenocarcinoma, adherent, top dose 4 µM) | 0.928 | > 4 µM
5 | TOV-112D (ovary, adherent, top dose 4 µM) | 0.957 | > 4 µM
6 | NAMALWA (Burkitt lymphoma, suspension, top dose 4 µM) | 0.816 | 1.79 µM
7 | A375 (melanoma, adherent, top dose 4 µM) | 0.889 | 3.15 µM

From the supplement of paper PMC4967469
